Source: a compilation of properties of binary mixtures (doi:10.1021/je300932n)
Some of these densities may be calculated back from excess volumes.

Experiment: xn = mol fraction of the nth substance listed
Settings: 101 kPa

CCCC[n+]1ccn(C)c1.N[C@@H](CC(=O)O)C(=O)[O-] + CO
mass density [kg/m3]
Settings | x2 = 0.1001 | x2 = 0.1999 | x2 = 0.2999 | x2 = 0.398 | x2 = 0.5015 | x2 = 0.5949 | x2 = 0.6969 | x2 = 0.7957 | x2 = 0.8988
298.15 K | 1174 | 1173 | – | 1158 | – | 1145 | 1075 | – | –
303.15 K | 1170 | – | 1159 | 1153 | 1148 | – | – | 1029 | 966
308.15 K | 1163 | 1162 | 1156 | – | 1144 | 1137 | – | 1026 | 962
318.15 K | 1157 | – | 1149 | 1145 | – | 1130 | 1065 | – | –
